The whole screen tested about 320,000 compounds, of which about 7,600 (2.4%) were called active. Inconclusive means that the source gave no clear call. Such entries were picked first, then a sample of the others. Calls come from the whole dose curve; as a rule, active = well fitted activation curve with a large enough effect; inconclusive = small, poorly fitted or top-dose-only effect; inactive = no such curve, though single readings can be large or run the other way. Potencies of inconclusive entries are left out as doubtful fits.
assay: qHTS Assay for NPC1 Promoter Activators; conditions: Huh7 NPC1 promoter luciferase reporter, 24 h; series mostly up to 9.22 µM; activation: at the top concentration; note: nearly all actives have a fitted effect of over 60% in size;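 for activation: reporter is driven by a mutant NPC1 promoter; % of control where 0% means no effect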
In short: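 Stable NPC1-promoter luciferase Huh7 line; cpd (DMSO) 24 h, 37 °C, 5% CO2; Amplite luciferase reagent 10 min RT; luminescence readout. qHTS format.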
Potency is the fitted concentration of half-maximal effect; tags give direction and shape of the fitted curve.

Structure (SMILES) | Potency | activation
O=C(/C=C/c1cccs1)Nc1scc(-c2ccccc2)c1C(=O)O | active: 1.41 µM | –
O=C(Nc1nc2ccccc2s1)c1ccccc1[N+](=O)[O-] | inconclusive [activator, single point] | –
O=c1c2ccccc2oc2cc(-c3ccc(CN4CCOCC4)cc3)ccc12 | active: 2.24 µM | –
CCOc1ccc2[nH]c3c(NCCCOC)ncnc3c2c1 | inconclusive [activator, partial curve] | –
CCOC(=O)c1ccc(-c2ccc(CO)o2)cc1 | active: 1.12 µM | –
COC(=O)c1sc2ccccc2c1-n1cccc1C(=O)C(=O)Nc1ccc(OC)cc1 | inconclusive [activator, partial curve] | –
CCCCSc1ccc2nc(-c3ccc(C#N)cc3)cn2c1 | inconclusive [activator, single point] | –
C=CCn1c(=NC(=O)C2COc3ccccc3O2)sc2cccc(OC)c21 (configuration not stated) | inconclusive [activator, single point] | –
CCC1CCCCN1CCCNC(=O)Cn1ncc2c(C)n(Cc3ccccc3Cl)c(C)c2c1=O (configuration not stated) | – | inactive: -1.57%
Cc1ccc(N(C(=O)C(F)(F)F)C(C(=O)NC2CCCCC2)c2cccs2)cc1 (configuration not stated) | – | inactive: -7.54%
COc1cccc2c1C(=O)c1ccc3ccccc3c1C2=O | – | inactive: 17.8%
CC(C)(C)NC(=O)NC(=O)CN1c2cccc3cccc(c23)S1(=O)=O | – | inactive: -1.85%
Cc1ccc(NC(=O)CCCc2ccccc2)nc1 | inconclusive [activator, partial curve] | –
CCOc1ccccc1C(=O)Nc1ccc(-n2nncc2C(C)(C)C)cc1 | – | inactive: -7.63%
O=C(Nc1ccc2sccc2c1)c1cccc(N2C(=O)CCC2=O)c1 | inconclusive [activator, partial curve] | –
O=C(c1cc(Cl)ccc1F)N1CCCC(Nc2ccc3c(c2)OCCO3)C1 (configuration not stated) | – | inactive: -1.7%
Cc1cccc(NC(=O)CSCC(=O)Nc2cc(Cl)ccc2N2CCN(C)CC2)c1 | – | inactive: 1.7%
O=C(NCc1ccccc1)c1c[nH]c2cc3c(cc2c1=O)OCCO3 | active: 3.16 µM | –
CC(=O)Nc1ccc(S(=O)(=O)N2CCC(N3CCCCC3)CC2)cc1 | inconclusive [activator, single point] | –
Cc1nnc(NC(=O)C2CC(=O)N(c3ccccc3)C2)s1 (configuration not stated) | – | inactive: -1.02%
c1ccc(N2CCN(c3ncnc4c3oc3ccccc34)CC2)cc1 | – | inactive: 2.9%
COc1ccc(C(=O)Nc2ccccc2C(=O)Nc2cc(C)ccn2)cc1 | active: 1.78 µM | –
O=C(Nc1ccc(F)cc1)Nc1cccnc1 | – | inactive: 10.3%
Nc1ccc2oc(-c3ccccc3Cl)nc2c1 | inconclusive [activator, full curve] | –
O=C(Nc1ccc(F)cc1)Nc1ccc2c(c1)CCC2 | active: 2.51 µM | –
Cn1c(SCc2ccccc2[N+](=O)[O-])nnc1-c1cccnc1 | – | inactive: 23.8%

Structure (SMILES) | Potency | activation
O=C(Cc1ccccc1)Nc1cccc([N+](=O)[O-])c1 | – | inactive: -4.13%
O=C(/C=C/c1ccccc1)Nc1ccc(N2CCCCC2)cc1 | inconclusive [activator, single point] | –
COCC(=O)NNC(=O)c1ccccc1OC | – | inactive: -2.5%
Cc1cnc(NC(=O)c2cc3c(s2)CCCC3)s1 | inconclusive [activator, partial curve] | –
CC/C(=N\Nc1nncc2ccccc12)c1ccc(F)cc1 | inconclusive [activator, partial curve] | –
CN(CC(=O)Nc1cccc(F)c1)C(=O)c1cc(-c2ccco2)nc2ccccc12 | – | inactive: -5.46%
Clc1ccc(C2=Nc3cc(Cl)ccc3OC2)cc1 | inconclusive [activator, single point] | –
COc1cccc(/C=C2\CC(C)Cc3c2nc2ccccc2c3C(=O)O)c1OC (configuration not stated) | inconclusive [activator, single point] | –
O=[N+]([O-])c1nn(-c2ccc3c(c2)OCCO3)n(O)c1=NCCC1=CCCCC1 | inconclusive [activator, single point] | –
COc1ccc(/C=C/c2ccc3c(Br)ccc(O)c3n2)cc1 | inconclusive [activator, partial curve] | –
Clc1cc2nc3ccccn3c2cc1Cl | inconclusive [activator, single point] | –
CC1(C)Cc2c(sc3nc(-c4ccccc4)n(N)c(=O)c23)CO1 | – | inactive: 17.3%
COc1ccc(-c2csc(-n3ncc(C(=O)O)c3C(F)(F)F)n2)cc1 | inconclusive [activator, partial curve] | –
O=C(Nc1nnc(C2CC2)s1)c1ccco1 | inconclusive [activator, partial curve] | –
Cc1cc(/C(N)=N/OC(=O)Nc2ccccc2)no1 | – | inactive: 23.3%
Cc1cc(=O)[nH]c(SCC(=O)Nc2cc(S(=O)(=O)N(C)C)ccc2Cl)n1 | – | inactive: -19.7%
Cc1cc(C)cc(NC(=O)c2cccc(NC(=O)C3C4CC5OC(=O)C3C5C4)c2)c1 (configuration not stated) | – | inactive: 0.703%
c1ccc(CSCc2cn3ccsc3n2)cc1 | inconclusive [activator, partial curve] | –
Cc1[nH]n(-c2ccc(Cl)cc2)c(=O)c1N=Nc1cccnc1 | inconclusive [activator, single point] | –
CCn1c(C)nc2cc(C(=O)N/N=C/c3ccccc3)ccc21 | active: 3.16 µM | –
Cc1c(-c2ccccc2)[nH]n2c(=O)c3c(nc12)CCCC3 | inconclusive [activator, single point] | –
COc1cc(/C=C/C(=O)N2CCCc3ccccc32)cc(OC)c1OC | – | inactive: -1.52%
C=CCOc1ccccc1CNc1ccc2c(c1)OCCO2 | inconclusive [activator, partial curve] | –
CN(C)c1ccc(NC(=O)c2ccc3nc[nH]c3c2)cc1 | inconclusive [activator, partial curve] | –
O=C(Nc1cccc(C(=O)O)c1)Nc1ccc2c(c1)OCO2 | inconclusive [activator, partial curve, poor fit] | –
O=C(Nc1cc(F)c(Br)cc1F)c1ccc(Cl)cc1 | active: 2.24 µM | –

— PubChem BioAssay AID485313 (National Center for Advancing Translational Sciences (NCATS), 2010)
